# Assay results as given in PubChem BioAssay AID624417 (National Center for Advancing Translational Sciences (NCATS), 2012).
# Hit rate of the full screen: of about 410,000 compounds, about 6,400 (1.6%) were called active. The shares of active, inactive and inconclusive entries below differ from those in the screen. The call rests on the fitted dose curve; in most records, active means well fitted inhibition curve with a large enough effect; inconclusive means small, poorly fitted or top-dose-only effect; inactive means no such curve, though single readings can be large or run the other way. Potencies of inconclusive entries are left out as doubtful fits.
# Target: Glucagon-like peptide 1 receptor (Homo sapiens) (UniProt P43220)
# Assay: qHTS of GLP-1 Receptor Inverse Agonists (Inhibition Mode); further: nearly all actives have a fitted effect of over 55% in size
# Conditions: HEK293 GLP-1R CRE-luciferase, luminescence, 24 h, GLP-1R form is constitutively active; activity change, negative = inhibition: at 38.3 µM (top of the series) unless noted
# How it was run: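 HEK293 cells stably co-expressing a cAMP-responsive luciferase reporter and constitutively active GLP-1R were seeded, incubated 12 h, then exposed to compounds for 24 h at 37 C. Luminescence was read 12 min after detection reagent; inverse agonists lower signal.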
# On the % scale 0 is the no-effect control and ±100 the full control effect; potency means the concentration at half of the fitted maximal effect; tags describe the fitted curve by direction and shape.
# UniProt P43220, sequence (P43220 whole entry, looked up): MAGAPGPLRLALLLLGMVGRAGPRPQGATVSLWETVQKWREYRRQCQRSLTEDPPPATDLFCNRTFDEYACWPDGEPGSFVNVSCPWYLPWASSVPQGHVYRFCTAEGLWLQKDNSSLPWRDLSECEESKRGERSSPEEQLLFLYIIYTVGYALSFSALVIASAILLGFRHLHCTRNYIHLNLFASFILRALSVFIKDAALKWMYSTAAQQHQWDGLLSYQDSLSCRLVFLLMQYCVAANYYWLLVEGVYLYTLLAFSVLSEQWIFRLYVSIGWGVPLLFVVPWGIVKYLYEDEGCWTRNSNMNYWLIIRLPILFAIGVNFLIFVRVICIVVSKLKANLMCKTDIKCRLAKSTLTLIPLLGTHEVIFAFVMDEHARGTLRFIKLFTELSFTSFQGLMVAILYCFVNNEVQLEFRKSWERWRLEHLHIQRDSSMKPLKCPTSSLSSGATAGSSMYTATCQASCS
Compound,Potency,"activity change, negative = inhibition"
CCOC(=O)c1cnc(-c2ccccc2)nc1Oc1ccc(C)cc1,"inconclusive [inhibitor, single point]",–
CCc1ccc(/C=C2\SC(=S)N(CCCC(=O)NCCCN3CCOCC3)C2=O)cc1,"inconclusive [inhibitor, partial curve]",–
CCC(CO)Oc1cc(NCc2cc(C)cc(C)c2)c2ncn(C(C)C)c2c1 (stereo not given),"inconclusive [inhibitor, single point]",–
COCCCNC(=O)c1ccccc1Oc1ccccc1,–,inactive: -8.72%
O=C(OCc1nnc(-c2ccccc2)o1)c1cc(S(=O)(=O)N2CCOCC2)ccc1F,–,inactive: -16.5%
O=C(CSc1nc(-c2ccco2)cc(C(F)(F)F)n1)Nc1ccc2c(c1)OCO2,"inconclusive [inhibitor, partial curve, poor fit]",–
O=C(COC(=O)c1ccccc1OCc1ccccc1Cl)NCC1CCCO1 (stereo not given),"inconclusive [inhibitor, single point]",–
CCC(=O)Nc1nnc(-c2ccncc2)s1,–,inactive: 72%
Cc1ccc(S(=O)(=O)N2CCN(C(=O)Cc3ccc(S(=O)(=O)N4CCOCC4)s3)CC2)cc1,"inconclusive [inhibitor, single point]",–
CCCCOc1ccc(NC2=NC3(CCCCC3)N=C(N)N2)cc1,"inconclusive [inhibitor, partial curve, poor fit]",–
Cc1cccc(NC(=O)C2C3CCCCC32)c1 (stereo not given),"inconclusive [inhibitor, single point]",–
Cc1ccc(-n2ncc3c2CCCC3NC(=O)c2ccccc2N2CCOCC2)cc1C (stereo not given),"inconclusive [inhibitor, partial curve, poor fit]",–
CNc1ccccc1C(=O)OCC(=O)N1CCN(c2ccc(OC)cc2)CC1,"inconclusive [inhibitor, single point]",–
COc1ccc(/C=C/C(=O)NC(C)CCc2ccccc2)cc1 (stereo not given),"inconclusive [inhibitor, partial curve, poor fit]",–
Cc1ccc(NC(=O)/C(C#N)=C/c2cc(C)n(-c3ccc(F)cc3)c2C)cc1C,–,inactive: 6.9%
COc1ccc(-c2sc3cc(OC)ccc3c2-c2ccc(OCCN3CCCCC3)cc2)cc1,"inconclusive [inhibitor, partial curve, poor fit]",–
CCCCC(=O)NC(c1ccc(Cl)cc1)c1ccc2cccnc2c1O (stereo not given),"inconclusive [inhibitor, full curve, poor fit]",–
CCCCCCCCN1C(=O)[C@H](CC(=O)NCc2ccc(C)o2)C[C@@]2(C(=O)OC)CC(C)(C)CC=C12,"inconclusive [inhibitor, partial curve, poor fit]",–
CC(C)CCNc1nc2ccccc2nc1NS(=O)(=O)c1cccs1,"inconclusive [inhibitor, single point]",–
Cc1cc(C(=O)N/N=C\C(Br)=C\c2ccccc2)c(C)o1,–,inactive: 5.04% [at 7.66 µM]

Compound,Potency,"activity change, negative = inhibition"
COc1ccc(CCNC(=O)c2cc3c(=O)n4ccccc4nc3n(C3CCCCC3)c2=N)cc1,"inconclusive [inhibitor, single point]",–
NC(=O)c1cc(-c2ccccc2)nc(N2CCCCCC2)n1,"inconclusive [inhibitor, partial curve, poor fit]",–
Cc1cccc(N2CC(C)Cn3c2nc2c3c(=O)n(CC(=O)OCc3ccccc3)c(=O)n2C)c1 (stereo not given),"inconclusive [inhibitor, partial curve, poor fit]",–
Cn1nc(SCc2ccccc2)c(=O)n(C(c2ccccc2)c2ccccc2)c1=O,"inconclusive [inhibitor, full curve, poor fit]",–
CCCCCCc1cc2cc(S(=O)(=O)c3ccc(Cl)cc3)c(=O)oc2cc1O,"inconclusive [inhibitor, partial curve, poor fit]",–
O=C(CO/N=C/c1ccccc1OC(F)F)NC1CCCCC1,"inconclusive [inhibitor, partial curve]",–
Fc1ccc(CNC(=S)NC2CCCCCC2)cc1,"inconclusive [inhibitor, single point]",–
CC(NS(=O)(=O)c1ccc(Br)cc1)C(=O)Nc1nc2ccccc2[nH]1 (stereo not given),"inconclusive [inhibitor, partial curve]",–
Cc1cc(NC(=O)/C=C/c2ccc(F)cc2)n(-c2nc3ccccc3[nH]2)n1,–,inactive: 9.95%
COc1cccc(NC(=O)c2ccc(NCCCN3CC(C)CC(C)C3)c([N+](=O)[O-])c2)c1 (stereo not given),"inconclusive [inhibitor, partial curve, poor fit]",–
O=C(CSc1nc2ccc([N+](=O)[O-])cc2[nH]1)NC1CCCCCC1,"inconclusive [inhibitor, single point]",–
COc1ccc(-c2nc3ccc(Br)cn3c2Cc2cccc(Cl)c2)cc1OC,"inconclusive [inhibitor, single point]",–
COc1ccc(C(C)=NOC(=O)c2c(-c3ccccc3Cl)noc2C)cc1CN1CCOCC1,"inconclusive [inhibitor, single point]",–
CC(NC(=O)Nc1cc(Cl)ccc1Cl)c1c(-n2cccc2)sc2c1CCCC2 (stereo not given),active: 3.55 µM,–
CCOc1ccc(S(=O)(=O)N2CCCC2)c2ccccc12,"inconclusive [inhibitor, single point]",–
O=C(CN(C(=O)c1ccc(Cl)cc1)C1CCCCC1)Nc1ccc(Cl)c([N+](=O)[O-])c1,"inconclusive [inhibitor, full curve]",–
CCN(CCO)Cc1csc2c(Br)cccc12,"inconclusive [inhibitor, partial curve, poor fit]",–
Oc1c(C=NCc2ccncc2)sc2ccccc12,–,inactive: 60.3%
CCCCc1ccccc1NC(=S)NC1CCCC1,"inconclusive [inhibitor, single point]",–
CCOC(=O)C1(Cc2ccccc2)CCN(Cc2ccc3cc(NC(C)=O)ccc3n2)CC1,"inconclusive [inhibitor, partial curve, poor fit]",–
